Measured values taken from US11007503B2, “Systems and methods for a cooled nitric oxide generator” (The General Hospital Corporation, priority 2017, dated 2021).

Tested on: rabbits with acute pulmonary hypertension

[N]=O [NO, nitric oxide]
RVSP with NO generated on every two- or three-breaths (80 ppm NO triggered every other or every third breath, RVSP 30 mmHg before NO, P<0.05 versus before NO breathing, FIG. 15): 26 mmHg | RVSP reduction compared with 40 ppm NO diluted from NO/N2 tank (electrically generated NO versus tank NO (500 ppm NO in N2) in 50% O2, FIG. 14): as effective in reducing RVSP as breathing NO diluted from a convention NO/N2 cylinder
